#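 Step 1: Grow cells in 96-well plates. Step 2: Expose to compound for 48 hours at 5 concentrations. Step 3: Interpolate endpoints linearly; if unreached, use highest concentration. TGI is the concentration that stops growth completely.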
# Experiments:
# Experiment in all cases: NCI tumour cell line growth inhibition, 48 h
# COLO 205 colon = test system: COLO 205 colon
# UACC-257 melanoma = test system: UACC-257 melanoma
# NCI-H522 lung = test system: NCI-H522 lung
# EKVX NSCLC = test system: EKVX NSCLC
# SK-MEL-28 melanoma = test system: SK-MEL-28 melanoma
# NCI-H460 lung = test system: NCI-H460 lung
# DLD-1 colon = test system: DLD-1 colon
# SF-268 CNS = test system: SF-268 CNS
# HT29 colon = test system: HT29 colon
# SK-OV-3 ovarian = test system: SK-OV-3 ovarian
# UO-31 renal = test system: UO-31 renal
# M19-MEL melanoma = test system: M19-MEL melanoma
# TK-10 renal = test system: TK-10 renal
# HOP-18 NSCLC = test system: HOP-18 NSCLC
# SNB-78 CNS = test system: SNB-78 CNS
# DMS 273 small cell lung = test system: DMS 273 small cell lung
# U251 CNS = test system: U251 CNS
# HCT-116 colon = test system: HCT-116 colon
# HL-60(TB) leukemia = test system: HL-60(TB) leukemia
# OVCAR-4 ovarian = test system: OVCAR-4 ovarian
# MOLT-4 leukemia = test system: MOLT-4 leukemia
# OVCAR-8 ovarian = test system: OVCAR-8 ovarian
# K-562 leukemia = test system: K-562 leukemia
# SK-MEL-5 melanoma = test system: SK-MEL-5 melanoma
# SW-620 colon = test system: SW-620 colon
# MALME-3M melanoma = test system: MALME-3M melanoma
# OVCAR-3 ovarian = test system: OVCAR-3 ovarian
# NCI-H23 lung = test system: NCI-H23 lung
# HOP-92 NSCLC = test system: HOP-92 NSCLC
# LOX IMVI melanoma = test system: LOX IMVI melanoma
# RXF-631 renal = test system: RXF-631 renal
# RPMI-8226 leukemia = test system: RPMI-8226 leukemia
# HCC-2998 colon = test system: HCC-2998 colon
# CAKI-1 renal = test system: CAKI-1 renal
# KM12 colon = test system: KM12 colon
# HOP-62 NSCLC = test system: HOP-62 NSCLC
# SN12C renal = test system: SN12C renal
# 786-0 renal = test system: 786-0 renal
# SNB-19 CNS = test system: SNB-19 CNS
# HCT-15 colon = test system: HCT-15 colon
# M14 melanoma = test system: M14 melanoma
# RXF 393 renal = test system: RXF 393 renal
# NCI-H226 lung = test system: NCI-H226 lung
# LXFL 529 NSCLC = test system: LXFL 529 NSCLC
# IGROV1 ovarian = test system: IGROV1 ovarian
# UACC-62 melanoma = test system: UACC-62 melanoma
# A498 renal = test system: A498 renal
# OVCAR-5 ovarian = test system: OVCAR-5 ovarian
# CCRF-CEM leukemia = test system: CCRF-CEM leukemia
# SNB-75 CNS = test system: SNB-75 CNS
# ACHN renal = test system: ACHN renal
# SR leukemia = test system: SR leukemia
structure (smiles),measurement,setting,value
CCCCOC(=O)Oc1cc2c(c(OC)c1OC)-c1ccc(SC)c(=O)cc1[C@@H](NC(C)=O)CC2,TGI,COLO 205 colon,0.0168 µM
same,TGI,UACC-257 melanoma,> 100 µM
same,TGI,NCI-H522 lung,< 0.01 µM
same,TGI,EKVX NSCLC,> 100 µM
same,TGI,SK-MEL-28 melanoma,68.8 µM
same,TGI,NCI-H460 lung,0.364 µM
same,TGI,DLD-1 colon,> 100 µM
same,TGI,SF-268 CNS,> 100 µM
same,TGI,HT29 colon,> 100 µM
same,TGI,SK-OV-3 ovarian,4.64 µM
same,TGI,UO-31 renal,97.7 µM
same,TGI,M19-MEL melanoma,> 100 µM
same,TGI,TK-10 renal,> 100 µM
same,TGI,HOP-18 NSCLC,> 100 µM
same,TGI,SNB-78 CNS,> 100 µM
same,TGI,DMS 273 small cell lung,> 100 µM
same,TGI,U251 CNS,> 100 µM
same,TGI,HCT-116 colon,> 100 µM
same,TGI,HL-60(TB) leukemia,< 0.01 µM
same,TGI,OVCAR-4 ovarian,97.7 µM
same,TGI,MOLT-4 leukemia,24.3 µM
same,TGI,OVCAR-8 ovarian,> 100 µM
same,TGI,K-562 leukemia,> 100 µM
same,TGI,SK-MEL-5 melanoma,0.0134 µM
same,TGI,SW-620 colon,> 100 µM
same,TGI,MALME-3M melanoma,> 100 µM
same,TGI,OVCAR-3 ovarian,< 0.01 µM
same,TGI,NCI-H23 lung,2.08 µM
same,TGI,HOP-92 NSCLC,0.477 µM
same,TGI,LOX IMVI melanoma,> 100 µM
same,TGI,RXF-631 renal,4.77 µM
same,TGI,RPMI-8226 leukemia,24.1 µM
same,TGI,HCC-2998 colon,54 µM
same,TGI,CAKI-1 renal,70.6 µM
same,TGI,KM12 colon,0.0361 µM
same,TGI,HOP-62 NSCLC,> 100 µM
same,TGI,SN12C renal,51.3 µM
same,TGI,786-0 renal,60 µM
same,TGI,SNB-19 CNS,> 100 µM
same,TGI,HCT-15 colon,> 100 µM
same,TGI,M14 melanoma,> 100 µM
same,TGI,RXF 393 renal,0.583 µM
same,TGI,NCI-H226 lung,0.235 µM
same,TGI,LXFL 529 NSCLC,90.6 µM
same,TGI,IGROV1 ovarian,> 100 µM
same,TGI,UACC-62 melanoma,59 µM
same,TGI,A498 renal,0.224 µM
same,TGI,OVCAR-5 ovarian,> 100 µM
same,TGI,CCRF-CEM leukemia,> 100 µM
same,TGI,SNB-75 CNS,4.64 µM
same,TGI,ACHN renal,86.7 µM
same,TGI,SR leukemia,> 100 µM
